# Measured values taken from the supplement of paper PMC11417369.
# Some of the results follow.
# System: PfAP2-HC AP2 domain (GST-tagged)
# Experiment: gcPBM binding intensity (ln(normalized median fluorescence intensity)); higher = stronger DNA binding
# How it was run: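 GST-fused DNA-binding domains of P. falciparum, expressed in E. coli, were applied at about 25 μg on average for 1 h to an Agilent 4 × 180k array of primer-extended double-stranded 36-bp intergenic genomic probes and negative controls. Binding intensity is the highest Masliner-normalised natural-log median intensity across replicate spots of either probe orientation, measured with Alexa488 anti-GST antibody and a 488 nm scan.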
row,Sequence,gcPBM binding intensity (ln)
1,AAATATATGTATATATGTACATATGTGTGCTATCAT [XGTACX_site1604],9.97
2,TATTTATCTATTTTGTTATATAATAAAATAAAATAA [CACACA_negctrl_site281],9.23
3,AAACAATTGAATAAATGTACAGATACATTTTTTTAA [XGTACX_site5386],9.65
4,AAAAATAAACAAAATTGTACACATTACATACATATA [XGTACX_site966],9.8
5,ATACATACAAAAATTTGTACATATTTCCAATAATGT [XGTACX_site2658],9.57
6,GAAAAAACGAAAAAAATACACACCTGAAAAGATATG [CACACA_site887],9.88
7,GCCATAATATGACATACACACACAAAAAAAAAAAAA [CACACA_site8353],10.6
8,AAATTTCCATTTGGGTGTACATGTGAAACTACAAAG [XGTACX_site208],9.63
9,TTTTTATTTATATGATACTTATATATATATATATAT [CACACA_negctrl_site462],9.78
10,TTCTTAATATTGCATGCACACTATATAATAATTGAA [CACACA_site4720],9.85
11,TCTTTTAAAAAAATTTGTACATATTTTTTGTATTAT [XGTACX_site67],9.66
12,TTTTCCCTCTTATTCACACAAAAAAAATAAAATAAA [CACACA_site4656],9.26
13,TATTTATTTTTTTTTGTGCACTTAATATAATCTTAC,9.78
14,ACACTAACATCATATCGTACATTTGTTAATTTATAA [XGTACX_site8654],9.74
15,GAAAGAATAAAATTTACACACATATAAATATACATA [CACACA_site7125],9.79
16,TATTTGAAAACATAGGTGCACATTATTTTATAATCT [GTGCAC_site9947],9.74
17,AAAGGTGTCATATATGCACACAAAAGTAACACGCAC [CACACA_site8051],10.2
18,TTTATTCTTGAGTATTGTACATATGTGTTTGTATAT [XGTACX_site5706],9.96
19,AGGAGGATGCATATGGCACACATTATGAAACTGTCG [CACACA_site299],9.69
20,TGTTCTTTGTTCAGCGCATGTAAAATAAAATAAAAT [TGCATGCA_site629],9.31
21,TTTTTTTTTGAATACAGTACACAAGTGTTAAGTTTA [XGTACX_site7069],9.36
22,GATTGATTATATGTGTGTACTTATATGTTAAAAAAA [XGTACX_site4784],9.78

row,Sequence,gcPBM binding intensity (ln)
1,TATGAATATCTATACACACACATATATATACCCACT [CACACA_site4963],10.2
2,ATCGTTATATAAAAATGTACTTATAAATTGTATACA [XGTACX_site6664],9.55
3,CAACATTTGATAAACACACAGAAGTATAAATATATA [CACACA_site2365],9.83
4,AAAGGAAAAATCCAAGTGCATTATTATTTTCACAAA [GTGCAC_site9995],9.38
5,TGTAAGCACATACAAACACACAACATTATTTTTATC [CACACA_site2186],10.2
6,TAGTATAATATGAACACACACACACGCACAAAAAAA [CACACA_site7035],10.5
7,GAAAAAAATGAAATTAGTACTTATCTTAAATTTTTA [XGTACX_site1018],9.26
8,AAAAATATATAATAAAGTACACATAAATGAATAAAT [XGTACX_site329],9.94
9,TTTTTTTTTTTTTGATGTACAATTAATATTATAAAA [XGTACX_site6969],9.15
10,ATTTCTTTTTTATTGAGTACATATGACCATGTTCAA [XGTACX_site5365],9.56
11,CATTTTAAAGAAAATACACACAAAAATAGATATATA [CACACA_site6773],9.79
12,AGTAATAAATAATTTACACACATATTATATCATCAC [CACACA_site1890],9.93
13,AAGAAATAAAGCAAAACATGCACTCGAAAATGTTTT [TGCATGCA_site1014],9.71
14,TTAGCAACTATTACTACACACATTTTTATATAACTT [CACACA_site6762],9.91
15,TATTGTTAAAATGAATAATTAAAACAGTAATGAATA [XGTACX_negctrl_site170],9.61
16,TATATATGTTTTTATGTACACACTTTTAACCTAAGA [CACACA_site1149],9.67
17,ATGTCTAATTTTGATGCACACTTTTGTGCAATTAAA [CACACA_site5589],9.73
18,CGCATGCAATGTTAATGTACATATATATATATATGT [XGTACX_site3316],9.6
19,AGGTGCAAAAATAAAACATGCAAAAATAAAAATGAA [TGCATGCA_site502],9.86
20,AATAATTAAATAAGAGTGCATGAAACAGGAAATTTC,9.94
21,TAATAAAAAATATATACACACAAATAAATAAATAAA [CACACA_site4037],9.9
22,AATAGTCGTGTGCATACACACCTTAACTATAATATA [CACACA_site6636],9.91
